Data reported in the supplement of paper PMC10126150.
Values marked as one replicate rest on one cluster of the flow cell; about a third of the high ones do not repeat.

tested on: ATP; assay: switch fluorescence ratio, 500 uM ATP over buffer (Cy3 cluster intensity, sum of 5 cycles each) (fold (ratio)); higher = stronger signal-on switching upon ATP binding; sequences stand for … in TCGTCGGCAGCGTCAGATGTGTATAAGAGACAGTTTTTTTTTTTTTTTTTTTTTTTTT…TC; settings: aptamer strand: ATP DNA aptamer (quencher-CACCTGGGGGAGTATTGCGGAGGAAGG + anchor), 100 nM annealed; ATP concentration: 500 uM; one replicate
Method in brief: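 Per cluster, summed Cy3 intensity from the target cycles was divided by that from the buffer cycles to give the fluorescence ratio, then averaged per switch-domain sequence. Clusters outside 100-1000 RFU were excluded. The Cy3-labelled switching-strand clusters, on a modified Illumina MiSeq flow-cell, were annealed to 100 nM quencher-labelled ATP aptamer and imaged in selection buffer, then after 15 min with 500 uM ATP at 22 °C, for five cycles with NaOH stripping and re-annealing between them.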
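Also: ATP exposure 15 min at 22 °C before imaging.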

| Sequence | switch fluorescence ratio |
| --- | --- |
| GGGGTTCTGG | 0.968 |
| GGGGTTTT | 1 |
| GGGTAAGCG | 0.972 |
| GGGTACAGTA | 0.998 |
| GGGTAGAGCA | 0.984 |
| GGGTAGATAT | 0.994 |
| GGGTAGCGG | 0.977 |
| GGGTAGTGTG | 0.965 |
| GGGTATTAGA | 0.986 |
| GGGTATTAGG | 0.943 |
| GGGTCAGTAA | 1.02 |
| GGGTCAGTT | 1.01 |
| GGGTCATTCT | 1.07 |
| GGGTCCAATT | 1.01 |
| GGGTCCACT | 1.01 |
| GGGTCCACTG | 1.08 |
| GGGTCGCCAC | 0.996 |
| GGGTCGTTAA | 0.999 |
| GGGTCGTTAT | 0.932 |
| GGGTCTATTC | 0.997 |
| GGGTCTTCAG | 0.998 |
| GGGTGATGTT | 1.08 |
| GGGTGCCACG | 1.01 |
| GGGTGGAGTA | 0.961 |
| GGGTGGTACG | 0.978 |
| GGGTGTCCGG | 0.997 |

| Sequence | switch fluorescence ratio |
| --- | --- |
| GGGTGTCCGT | 1.01 |
| GGGTGTCGAT | 0.983 |
| GGGTTAATG | 1.01 |
| GGGTTACCTA | 0.973 |
| GGGTTATCCA | 1.01 |
| GGGTTCACGC | 1.03 |
| GGGTTGAACA | 0.932 |
| GGGTTGCATA | 0.988 |
| GGGTTGTCCC | 1.01 |
| GGGTTTCATA | 0.968 |
| GGTAAAACCC | 1.04 |
| GGTAAAAGTA | 0.988 |
| GGTAAAGCCT | 1.06 |
| GGTAAAGTGT | 0.959 |
| GGTAACCGGT | 1.06 |
| GGTAACGAAA | 1.02 |
| GGTAACGTG | 1.07 |
| GGTAAGTCTG | 0.973 |
| GGTAATCAAA | 1.04 |
| GGTAATGAAT | 1.01 |
| GGTAATTCGG | 1.02 |
| GGTAATTTT | 0.993 |
| GGTACAACGT | 1.03 |
| GGTACACGTG | 0.957 |
| GGTACAGGTC | 0.989 |
| GGTACATTCA | 1.02 |

| Sequence | switch fluorescence ratio |
| --- | --- |
| GGTACGACAG | 1.03 |
| GGTACGAGAA | 0.96 |
| GGTACGGATT | 0.987 |
| GGTACGTTAG | 1.01 |
| GGTACTTTAT | 0.994 |
| GGTAGCAATT | 1.9 |
| GGTAGCATTA | 1.03 |
| GGTAGCTAGC | 1.18 |
| GGTAGCTGAC | 1.26 |
| GGTATAATAT | 1.01 |
| GGTATAATCG | 0.951 |
| GGTATAGGCA | 0.998 |
| GGTATAGTCA | 1.01 |
| GGTATATGCC | 0.931 |
| GGTATCCGTT | 1.03 |
| GGTATGAGAT | 1.03 |
| GGTATGGGTA | 0.991 |
| GGTATTCCAT | 1.03 |
| GGTATTTTCA | 1.03 |
| GGTCAATGAA | 0.97 |
| GGTCACATTT | 1.01 |
| GGTCACCTAC | 1.2 |
| GGTCACGAGA | 1.02 |
| GGTCAGCTCG | 0.969 |
| GGTCATATTT | 1.01 |
| GGTCATTGGT | 1.01 |

| Sequence | switch fluorescence ratio |
| --- | --- |
| GGTCCAAAGA | 0.98 |
| GGTCCACGGA | 1.01 |
| GGTCCAGCGC | 0.972 |
| GGTCCATAGA | 0.984 |
| GGTCCGTATA | 1.1 |
| GGTCCGTTGG | 0.967 |
| GGTCCGTTTT | 1.05 |
| GGTCCTGACT | 1.05 |
| GGTCGCAGAG | 1 |
| GGTCGCCTTT | 0.979 |
| GGTCGGAACA | 0.979 |
| GGTCGGCAGG | 0.992 |
| GGTCGTGATG | 0.994 |
| GGTCGTGCAT | 0.971 |
| GGTCGTTGGG | 0.995 |
| GGTCTAACTG | 1.01 |
| GGTCTGAGTA | 0.971 |
| GGTCTGCCGG | 1.06 |
| GGTCTGGCGC | 1.03 |
| GGTCTGTGGG | 0.983 |
| GGTCTTAGAG | 0.958 |
| GGTCTTGGT | 0.99 |
| GGTCTTTGCT | 1.01 |
